Results from US20140031278A1, “Novel Glucagon Analogues” (NOVO NORDISK A/S, priority 2011, published 2014).
At least one compound was matched to its structure with a doubt left. *1 amine or outer side, *2 acyl side, *3 side chain or, on linkers, in order; H or OH if unused. Where a SMILES comes first, the peptide text is derived from it. Side-chain parts run from the residue outwards. γGlu = O=C(O)[C@H](CCC(=O)[*:2])N[*:1]

Assay: ThT fibrillation assay for physical stability (lag time, recovery)
Assay type: physicochemical
Details: for ThT assay [Lag time]: absence of increased ThT fluorescence noted as lag time of 45 hours; for ThT assay [Recovery]: peptide concentration in filtered supernatant after ThT assay as percentage of initial
Source text: This has traditionally been measured by visual inspection of the sample. However, that kind of measurement is very subjective and depending on the observer. Therefore, the application of a small molecule indicator probe is much more advantageous. […] Enzymol.
Here, F is the ThT fluorescence at the time t.
The lag-time corresponds to the interval in which the critical mass of nucleus is built up and the apparent rate constant is the rate with which the fibril itself is formed.
Samples were prepared freshly before each assay. […] The pH of the sample was adjusted to the desired value using appropriate amounts of concentrated NaOH and HCl.
The plate was sealed with Scotch Pad (Qiagen).
Each run was initiated by incubating the plate at the assay temperature for 10 min. The plate was measured every 20 minutes for a desired period of time. Between each measurement, the plate was shaken and heated as described.
The supernatant was filtered through a 0.22 μm filter and an aliquot was transferred to a HPLC vial.
The data set may be fitted to Eq. (1).

Structure (SMILES)	ThT assay [Lag time] [h]	ThT assay [Recovery] [%]
CC(=O)N[C@@H](CCC(=O)N[C@@H](CCC(=O)N[C@@H](CCC(=O)N[C@@H](CCC(=O)NCCCC[C@H](NC(=O)[C@@H](NC(=O)[C@H](Cc1ccccc1)NC(=O)[C@H](CC(=O)O)NC(=O)[C@H](CCC(N)=O)NC(=O)[C@H](C)NC(=O)[C@H](CCCNC(=N)N)NC(=O)[C@H](CCCNC(=N)N)NC(=O)[C@H](CO)NC(=O)[C@H](CC(=O)O)NC(=O)[C@H](CC(C)C)NC(=O)[C@H](Cc1ccc(O)cc1)NC(=O)[C@H](CCCCN)NC(=O)[C@H](CO)NC(=O)[C@H](Cc1ccc(O)cc1)NC(=O)[C@H](CC(=O)O)NC(=O)[C@H](CO)NC(=O)[C@@H](NC(=O)[C@H](Cc1ccccc1)NC(=O)[C@@H](NC(=O)CNC(=O)[C@H](Cc1c[nH]cn1)NC(=O)[C@H](CO)NC(=O)[C@@H](N)Cc1c[nH]cn1)[C@@H](C)O)[C@@H](C)O)C(C)C)C(=O)N[C@@H](Cc1c[nH]c2ccccc12)C(=O)N[C@@H](CC(C)C)C(=O)N[C@@H](CC(C)C)C(=O)N[C@@H](CO)C(=O)N[C@H](C(=O)O)[C@@H](C)O)C(=O)O)C(=O)O)C(=O)O)C(=O)O [Example 3]	45	100
CC(C)C[C@H](NC(=O)[C@H](Cc1ccc(O)cc1)NC(=O)[C@H](CCCNC(=N)N)NC(=O)[C@H](CO)NC(=O)[C@H](Cc1ccc(O)cc1)NC(=O)[C@H](CC(=O)O)NC(=O)[C@H](CO)NC(=O)[C@@H](NC(=O)[C@H](Cc1ccccc1)NC(=O)[C@@H](NC(=O)CNC(=O)[C@H](Cc1c[nH]cn1)NC(=O)[C@H](CO)NC(=O)[C@@H](N)Cc1c[nH]cn1)[C@@H](C)O)[C@@H](C)O)C(=O)N[C@@H](CCC(=O)O)C(=O)N[C@@H](CO)C(=O)N[C@@H](CCCNC(=N)N)C(=O)N[C@@H](CCCNC(=N)N)C(=O)N[C@@H](C)C(=O)N[C@@H](C)C(=O)N[C@@H](CC(=O)O)C(=O)N[C@@H](Cc1ccccc1)C(=O)N[C@H](C(=O)N[C@@H](CCCCNC(=O)CC[C@H](NC(=O)CC[C@H](NC(=O)CC[C@H](NC(=O)CC[C@H](N)C(=O)O)C(=O)O)C(=O)O)C(=O)O)C(=O)N[C@@H](Cc1c[nH]c2ccccc12)C(=O)N[C@@H](CC(C)C)C(=O)N[C@@H](CC(C)C)C(=O)N[C@@H](CO)C(=O)N[C@H](C(=O)O)[C@@H](C)O)C(C)C [Example 6, N^ε24-[(4S)-4-[[(4S)-4-[[(4S)-4-[[(4S)-4-amino-4-carboxybutanoyl]amino]-4-carboxybutanoyl]amino]-4-carboxybutanoyl]amino]-4-carboxybutanoyl]-[His3,Arg12,Glu15,Ala20,Lys24,Leu27,Ser28]-Glucagon] (H-HSHGTFTSDYSRYLESRRAADFVK([γGlu-γGlu-γGlu-γGlu])WLLST-OH)	45	100
CC[C@H](C)[C@H](NC(=O)[C@H](CC(=O)O)NC(=O)[C@H](CC(C)C)NC(=O)[C@H](Cc1ccc(O)cc1)NC(=O)[C@H](CCCNC(=N)N)NC(=O)[C@H](CO)NC(=O)[C@H](Cc1ccc(O)cc1)NC(=O)[C@H](CC(=O)O)NC(=O)[C@H](CO)NC(=O)[C@@H](NC(=O)[C@H](Cc1ccccc1)NC(=O)[C@@H](NC(=O)CNC(=O)[C@H](Cc1c[nH]cn1)NC(=O)[C@H](CO)NC(=O)[C@@H](N)Cc1c[nH]cn1)[C@@H](C)O)[C@@H](C)O)C(=O)N[C@@H](CCCNC(=N)N)C(=O)N[C@@H](CCCNC(=N)N)C(=O)N[C@@H](C)C(=O)N[C@@H](C)C(=O)N[C@@H](CC(=O)O)C(=O)N[C@@H](Cc1ccccc1)C(=O)N[C@H](C(=O)N[C@@H](CCCCNC(=O)CC[C@H](NC(=O)CC[C@H](NC(=O)CC[C@H](NC(=O)CC[C@H](N)C(=O)O)C(=O)O)C(=O)O)C(=O)O)C(=O)N[C@@H](Cc1c[nH]c2ccccc12)C(=O)N[C@@H](CC(C)C)C(=O)N[C@@H](CC(C)C)C(=O)N[C@@H](CO)C(=O)N[C@H](C(=O)O)[C@@H](C)O)C(C)C [Example 8, N^ε24-[(4S)-4-[[(4S)-4-[[(4S)-4-[[(4S)-4-amino-4-carboxybutanoyl]amino]-4-carboxybutanoyl]amino]-4-carboxybutanoyl]amino]-4-carboxybutanoyl]-[His3,Arg12,Ile16,Ala20,Lys24,Leu27,Ser28]-Glucagon] (H-HSHGTFTSDYSRYLDIRRAADFVK([γGlu-γGlu-γGlu-γGlu])WLLST-OH)	2	78
CC(C)C[C@H](NC(=O)[C@H](Cc1c[nH]c2ccccc12)NC(=O)[C@H](CCCCNC(=O)CC[C@H](NC(=O)CC[C@H](NC(=O)CC[C@H](NC(=O)CC[C@H](N)C(=O)O)C(=O)O)C(=O)O)C(=O)O)NC(=O)[C@@H](NC(=O)[C@H](Cc1ccccc1)NC(=O)[C@H](CC(=O)O)NC(=O)[C@H](C)NC(=O)[C@H](C)NC(=O)[C@H](CCCNC(=N)N)NC(=O)[C@H](CCCNC(=N)N)NC(=O)[C@@H](NC(=O)[C@H](CC(=O)O)NC(=O)[C@H](CC(C)C)NC(=O)[C@H](Cc1ccc(O)cc1)NC(=O)[C@H](CCCNC(=N)N)NC(=O)[C@H](CO)NC(=O)[C@H](Cc1ccc(O)cc1)NC(=O)[C@H](CC(=O)O)NC(=O)[C@H](CO)NC(=O)[C@@H](NC(=O)[C@H](Cc1ccccc1)NC(=O)[C@@H](NC(=O)CNC(=O)[C@H](Cc1c[nH]cn1)NC(=O)[C@H](CO)NC(=O)[C@@H](N)Cc1c[nH]cn1)[C@@H](C)O)[C@@H](C)O)[C@@H](C)O)C(C)C)C(=O)N[C@@H](CC(C)C)C(=O)N[C@@H](CO)C(=O)N[C@H](C(=O)O)[C@@H](C)O [Example 9, N^ε24-[(4S)-4-[[(4S)-4-[[(4S)-4-[[(4S)-4-amino-4-carboxybutanoyl]amino]-4-carboxybutanoyl]amino]-4-carboxybutanoyl]amino]-4-carboxybutanoyl]-[His3,Arg12,Thr16,Ala20,Lys24,Leu27,Ser28]-Glucagon] (H-HSHGTFTSDYSRYLDTRRAADFVK([γGlu-γGlu-γGlu-γGlu])WLLST-OH)	45	100
CC(=O)N[C@@H](CCC(=O)N[C@@H](CCC(=O)N[C@@H](CCC(=O)N[C@@H](CCC(=O)NCCCC[C@H](NC(=O)[C@@H](NC(=O)[C@H](Cc1ccccc1)NC(=O)[C@H](CC(=O)O)NC(=O)[C@H](C)NC(=O)[C@H](C)NC(=O)[C@H](CCCNC(=N)N)NC(=O)[C@H](CCCNC(=N)N)NC(=O)[C@@H](NC(=O)[C@H](CC(=O)O)NC(=O)[C@H](CC(C)C)NC(=O)[C@H](Cc1ccc(O)cc1)NC(=O)[C@H](CCCCN)NC(=O)[C@H](CO)NC(=O)[C@H](Cc1ccc(O)cc1)NC(=O)[C@H](CC(=O)O)NC(=O)[C@H](CO)NC(=O)[C@@H](NC(=O)[C@H](Cc1ccccc1)NC(=O)[C@@H](NC(=O)CNC(=O)[C@H](Cc1c[nH]cn1)NC(=O)[C@H](CO)NC(=O)[C@@H](N)Cc1c[nH]cn1)[C@@H](C)O)[C@@H](C)O)C(C)C)C(C)C)C(=O)N[C@@H](Cc1c[nH]c2ccccc12)C(=O)N[C@@H](CC(C)C)C(=O)N[C@@H](CC(C)C)C(=O)N[C@@H](CO)C(=O)N[C@H](C(=O)O)[C@@H](C)O)C(=O)O)C(=O)O)C(=O)O)C(=O)O [Example 10, N^ε24-[(4S)-4-[[(4S)-4-[[(4S)-4-[[(4S)-4-acetamido-4-carboxybutanoyl]amino]-4-carboxybutanoyl]amino]-4-carboxybutanoyl]amino]-4-carboxybutanoyl]-[His3,Val16,Ala20,Lys24,Leu27,Ser28]-Glucagon] (H-HSHGTFTSDYSKYLDVRRAADFVK([γGlu-γGlu-γGlu-γGlu-Ac])WLLST-OH)	45	100
CC[C@H](C)[C@H](NC(=O)[C@H](CC(=O)O)NC(=O)[C@H](CC(C)C)NC(=O)[C@H](Cc1ccc(O)cc1)NC(=O)[C@H](CCCCN)NC(=O)[C@H](CO)NC(=O)[C@H](Cc1ccc(O)cc1)NC(=O)[C@H](CC(=O)O)NC(=O)[C@H](CO)NC(=O)[C@@H](NC(=O)[C@H](Cc1ccccc1)NC(=O)[C@@H](NC(=O)CNC(=O)[C@H](Cc1c[nH]cn1)NC(=O)[C@H](CO)NC(=O)[C@@H](N)Cc1c[nH]cn1)[C@@H](C)O)[C@@H](C)O)C(=O)N[C@@H](CCCNC(=N)N)C(=O)N[C@@H](CCCNC(=N)N)C(=O)N[C@@H](C)C(=O)N[C@@H](C)C(=O)N[C@@H](CC(=O)O)C(=O)N[C@@H](Cc1ccccc1)C(=O)N[C@H](C(=O)N[C@@H](CCCCNC(=O)CC[C@H](NC(=O)CC[C@H](NC(=O)CC[C@H](NC(=O)CC[C@H](NC(C)=O)C(=O)O)C(=O)O)C(=O)O)C(=O)O)C(=O)N[C@@H](Cc1c[nH]c2ccccc12)C(=O)N[C@@H](CC(C)C)C(=O)N[C@@H](CC(C)C)C(=O)N[C@@H](CO)C(=O)N[C@H](C(=O)O)[C@@H](C)O)C(C)C [Example 11] (H-HSHGTFTSDYSKYLDIRRAADFVK([γGlu-γGlu-γGlu-γGlu-Ac])WLLST-OH)	45	100
CC(=O)N[C@@H](CCC(=O)N[C@@H](CCC(=O)N[C@@H](CCC(=O)N[C@@H](CCC(=O)NCCCC[C@H](NC(=O)[C@@H](NC(=O)[C@H](Cc1ccccc1)NC(=O)[C@H](CC(=O)O)NC(=O)[C@H](CCC(N)=O)NC(=O)[C@H](C)NC(=O)[C@H](CCCNC(=N)N)NC(=O)[C@H](CCCNC(=N)N)NC(=O)[C@@H](NC(=O)[C@H](CC(=O)O)NC(=O)[C@H](CC(C)C)NC(=O)[C@H](Cc1ccc(O)cc1)NC(=O)[C@H](CCCCN)NC(=O)[C@H](CO)NC(=O)[C@H](Cc1ccc(O)cc1)NC(=O)[C@H](CC(=O)O)NC(=O)[C@H](CO)NC(=O)[C@@H](NC(=O)[C@H](Cc1ccccc1)NC(=O)[C@@H](NC(=O)CNC(=O)[C@H](CCC(N)=O)NC(=O)[C@H](CO)NC(=O)[C@@H](N)Cc1c[nH]cn1)[C@@H](C)O)[C@@H](C)O)C(C)C)C(C)C)C(=O)N[C@@H](Cc1c[nH]c2ccccc12)C(=O)N[C@@H](CC(C)C)C(=O)N[C@@H](CC(C)C)C(=O)N[C@@H](CC(N)=O)C(=O)N[C@H](C(=O)O)[C@@H](C)O)C(=O)O)C(=O)O)C(=O)O)C(=O)O [Example 16, N^ε24-[(4S)-4-[[(4S)-4-[[(4S)-4-[[(4S)-4-acetamido-4-carboxybutanoyl]amino]-4-carboxybutanoyl]amino]-4-carboxybutanoyl]amino]-4-carboxybutanoyl]-[Val16,Lys24,Leu27]-Glucagon]	45	100
